# Read counts are not given, so values of variants with three or more changes are uncertain.
# B1: OR4K15 (parent)
# chain: GUUAACGGUCAUAGGCCAUGGAAACUAGGAGCACCAUUUCGCUGCCAGUGAAGAAAUGAACAAAGAAAAUCUGGGCCAGGCAGGCAUCAAAAGAAAUAGUCUUGCGCUCAACCAGAAAGUCUGUAAUCAUUUUAAGGGUA
# Variants of: B1
# Test: self-cleavage, relative activity (ratio to wild type); higher = more cleavage; in vitro, sequencing; the parent is a self-cleaving ribozyme
row,Variant,self-cleavage
1,A52G A66G A111G A114G U132C,0
2,A52G A98G G104U,0.01
3,A54U A66G A91G U132C,1.2
4,A54G A66G G74A U108C U132C,0.02
5,A54G A129G A135G,1.49
6,A54G U103C A117G,1.59
7,G53A U100C U103G,0.02
8,A51U U57G A68G G79A,0.08
9,A51G U57C A114G A135G,0.52
10,A51G A95G U130C,1.67
11,A51G G73A A91G U124C A135G,0.06
12,A51U A82G A94G,0.72
13,A51G A68G U87C,0.3
14,A52U A54G A110G,0.28
15,A51G A63G C107A,0.03
16,A52G A89G U122C,1.38
17,A52G A111U A116G A126G,0.03
18,A52G A69G U120G,1.06
19,A52G A54G A62U A91C,0.74
20,A54G A96G U131C,1.76
21,A52G A96G A126C A134G,1.1
22,A52G A98U U130C,2.77
23,G53A A60G A82G,0.61
24,A51G A96U U120C,1.27

row,Variant,self-cleavage
1,A51G A91G U108C,0.02
2,A51U A62G A67G,1.91
3,A51G A86U U87C A89G,0.85
4,A52G A54G U87C G106A U122G,0
5,A54G A60G G80A U108C U120C,0.01
6,A52G U87C U100C,2.91
7,A52G A56G A59G,0.76
8,A51G A82U C88A A95G,0.22
9,A54G U87C A110G A111U,0.02
10,A51G A63G G83A A91G,1.88
11,A51G A62U A96G,1.98
12,A54G A62G U132A,0.71
13,A52G U100A U132C,0.51
14,A54U A78G A110G,0.04
15,A51G A92G U127C,0.48
16,A54G A68G A91G A129G A135G,0.74
17,A52C U87C A95G A135G,1.44
18,A52G A54G U133C A134G,0.91
19,A51G A82G U102A,0.11
20,A52U C77A A89U A96G,0.77
21,A54G U108C A125G A129G,0
22,A52G A56G A68G,0.71
23,A52G A78G A89G U108C,0.02
24,A52U A82C U120C,0.09

row,Variant,self-cleavage
1,A52G A55G U72C G80A A114G,0.29
2,A51G A82G A95G,0.69
3,A54G A91G A110C,0.28
4,A51U U87C A118U,0.43
5,A54G U70C U124A,0.41
6,A54U A62G A63G A116G,0.82
7,A55G A56G A63G U102C A111G,0.05
8,A51G A68C A95G A126U,1.07
9,A52U A68G A110G,0.1
10,A54G A68C U130C,1.73
11,A52G A78G A90G A118U,0.2
12,A51G A90G U120A U131C,0.36
13,A52G A95G A129G,1.47
14,A51G C71U U122C,0.24
15,A54G A59U A114G,0.11
16,A51G A64G U70C U97C,0.45
17,A51G A66G A86G U87C,0.89
18,A51G A66G A110G,0.21
19,A51G A82G A110C A114G U127C,0.01
20,A54U A62U U124C,0.38
21,A52U U57C U70C A116G U131G,1.39
22,A52G A54G A94G U100C A140G,1.71
23,A54G A63G U133C,1.85
24,A54G A68G U72C U122A,0.11

row,Variant,self-cleavage
1,A54G A68G U122C U131C,0.66
2,A51G A96G U120C,0.95
3,A52G A67G A91G U139G,1.95
4,A51G U100A U122C,0.66
5,A54G A56G A126C,0.2
6,A51G U70C U130C,0.21
7,A52G A55G A56G U70C C76U A135U,0.1
8,A54G U87C U130C,1.33
9,A52U U70C A96G U122C,0.6
10,A51U A62G A118C,1.38
11,A52G A59G A60U,0.14
12,A51U A82G U87C U100C A110C,0.16
13,A52U A55G A82U A95G U102A G106A,0.01
14,A54G U87C A135G,1.39
15,A51U U70C U108C,0.01
16,A54G A89G U133C,1.55
17,A52G A54G A95U,0.83
18,A52G A94G A111G A117G,0.01
19,A52G A111G U122G,0.06
20,A52G A59U A68U,1.78
21,A51G U103C A111G U124C,0.01
22,A52U A68G A114G,0.81
23,A51G A69G U120C,0.89
24,A52U U72A G93A A126G,0.29

row,Variant,self-cleavage
1,A52G A92G U100A,0.53
2,A51U A69G A95G,0.96
3,A51G A86G U87A A90U U100C U108C A116G,0
4,A52U C105A U122C A134G,0
5,A54G A59G A90G,0.77
6,A54G A82U A116G,0.04
7,A52G A66G U87C U100C A117G,1.18
8,A52U A64G A67C A86G U122A,1.35
9,A52G A82U A86G,0.15
10,A52G A89C A98G,0.15
11,A52G A98G U127C,0.34
12,A54G A90G U132C,0.86
13,A52G C81U A96U U103C,0.19
14,A51G U87C A118G,1.23
15,A52G A67G U131C,1.91
16,A51G A86G A114G,1.27
17,A54G U70C A95U A118G,0.07
18,A54G A64G A67G U87C U102A A116G A135U,0.05
19,A52G A78G U120C A125G,0.01
20,A51G A86G A94G,1.49
21,A51G A111G A116G,0.03
22,A51G U57C U72A,0.16
23,A54G A59U C76A G138A,0.09
24,A52G A78G U87C A125C,0.13

row,Variant,self-cleavage
1,A51G G80A A91U G104A,0.02
2,A52U A60G U120C U139C,0.73
3,A54G U87C U103C A111U,0.03
4,A52G A78G U102C,0.47
5,A52U A56G U100C,2.2
6,G53A A63G G75C G79U A118G,0.05
7,A54U G74U A82U A129G,0.1
8,A54G U57A A78G,0.33
9,A54G A64G C105U U108C U122C A134U,0
10,A54G A68G U102C,1.46
11,A54G A82G C107U,0.02
12,A52G A91G U102C,2.12
13,A51U A55G G75A U103C,0.08
14,A54G A55G U108C,0.02
15,A51G U131C G136A,0.97
16,A52G A62G A68G U97A U122C,0.82
17,A52G A59G A94U,0.73
18,A51U U100G U103A A110C,0.03
19,A54G A66G U87C,0.92
20,A54G A56G A82C A89U,0.23
21,A54G A62G C85A U100C A110U U122C,0.7
22,A54C A68G A89G,1.36
23,A51U A62G A68G G106A,0.01
24,A54U A96U A135U,2.14

row,Variant,self-cleavage
1,A52G A54G U87A U120C,1.16
2,A54G A69U A114U,0.13
3,A54G A59U A64G,1.37
4,A51U A55G A114G,0.88
5,A51U A95U C128A U132C,1.82
6,A52U A68G U108C,0.03
7,A52U U70C A117G,2.17
8,A51G A92G U120C A129G,0.23
9,A51U A63G A95G U108C,0
10,G53U U102A A110G,0.02
11,A51G C101A A118G,0.07
12,A51G U72C U102C,0.2
13,A52U A67G A118G U139C A140G,1.31
14,A51G A92G U102C A117G,1.86
15,A54G A90C A94G,2.13
16,A52G A62U C107G,0.01
17,A52U U122C U130C,1.65
18,A51U G115A U120C,0.04
19,G53A A82U A125G U132C,0.01
20,A54G A66U G84C A118G U131C,0.07
21,A51G A111G U132C,0
22,A51G A91G A96G,0.96
23,A52G A94U A117G,2.27
